Measurements reported in PubChem BioAssay AID493208 (National Center for Advancing Translational Sciences (NCATS), 2011).
The campaign covered roughly 44,000 compounds. About 340 (0.77%) were called active. Inconclusive results, whose numbers are uncertain, are shown with a selection of clear calls. Calls follow the shape of the dose curve; as a rule, active = well fitted inhibition curve with a large enough effect; inconclusive = small, poorly fitted or top-dose-only effect; inactive = flat fitted curve, though single readings scatter. No potency is given beside an inconclusive call; the fits are too rough.

assay: Acumen qHTS Assay for Inhibitors of the mTORC1 Signaling Pathway in MEF (Tsc2-/-, p53-/-) Cells: Sytravon; conditions: phospho-rpS6 immunofluorescence/PI, 24 h; series mostly up to 38.3 µM; activity change, negative = inhibition: at the top concentration; also: nearly all actives have a fitted effect of over 50% in size;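 as to activity change, negative = inhibition: plate controls were DMSO for no effect and rapamycin for full effect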
Outline: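 Read-out: phospho-S6 Alexa-488 intensity over PI intensity per well, scored as % active cells using thresholds from rapamycin (7.5 nM) and DMSO controls. Tsc2-/-, p53-/- MEFs exposed to compound for 24 h; PI cell count recorded as viability.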
Potency is read from the fitted curve at half-maximal effect; tags tell the direction and shape of the fitted curve.

SMILES | Potency | activity change, negative = inhibition
COc1cc(NS(=O)(=O)c2ccc3c(c2)CCCN3C(C)=O)cc(OC)c1OC | inconclusive [falling, partial curve, poor fit] | 
O=C(Nc1ccc(F)c(Cl)c1)c1cc(S(=O)(=O)N2CCCc3ccccc32)ccc1F | inconclusive [falling, partial curve, poor fit] | 
COc1ccccc1CNS(=O)(=O)c1cc2c3c(c1)CCN3C(=O)CC2 | inconclusive [falling, partial curve] | 
COc1ccc(Cn2c(C(=O)O)c(CNC3CCCCCC3)c3ccc(OC)cc32)cc1 | inconclusive [falling, partial curve] | 
CCc1c(C)nc2nncn2c1Nc1ccc(C(C)C)cc1 |  | inactive: -9.27%
COc1ccc(NCc2cc3cc4c(cc3n(CC(=O)Nc3ccc(C)cc3)c2=O)OCO4)cc1 |  | inactive: 0.636%
COc1ccc(-c2nc(SCC(=O)Nc3ccc4c(c3)OCO4)c(-c3ccc(OC)cc3)[nH]2)cc1 | inconclusive [falling, partial curve, poor fit] | 
CCc1ccc2oc(-c3cccc(NC(=O)c4ccc(N5CCC(C)CC5)c([N+](=O)[O-])c4)c3)nc2c1 | inconclusive [falling, partial curve, poor fit] | 
CCOc1ccc(NS(=O)(=O)c2cc(Br)cc3c2N(C(=O)C2CC2)CC3)cc1 | inconclusive [falling, full curve, poor fit] | 
CCC1CCc2nc3sc(C(=O)Nc4ccc(F)cc4F)c(N)c3cc2C1 (stereo unspecified) | inconclusive [falling, single point] | 
CCCCNC(=O)CSc1nc2nc(C)c(Cc3ccccc3C)c(C)n2n1 | inconclusive [falling, partial curve, poor fit] | 
CCOC(=O)c1sc(NC(=O)/C=C/c2ccc(OCC)cc2)c(C(=O)OCC)c1C |  | inactive: -0.468%
COc1ccc(-n2c(=O)c3ccc(C(=O)NCc4ccc(C)cc4)cc3n(CC(=O)Nc3ccc(F)cc3)c2=O)cc1 | inconclusive [falling, single point] | 
O=C(Nc1cccc(C(=O)N2CCN(c3ccc(Cl)cc3)CC2)c1)c1nsc2ccccc12 | inconclusive [falling, partial curve] | 
Cc1ccccc1OCc1nnc(SCc2cc(=O)c3ccccc3[nH]2)n1C | inconclusive [falling, partial curve, poor fit] | 
COc1cccc(NC(=O)CCNS(=O)(=O)c2ccc(Br)s2)c1 | inconclusive [falling, partial curve, poor fit] | 
COc1cccc(C(=O)NCC(c2ccc(N(C)C)cc2)N2CCCC2)c1OC (stereo unspecified) | inconclusive [activator, partial curve, poor fit] | 
Cc1cccc(NC(=O)N2CCc3c(sc4c3CCCC4)C2c2ccc(F)cc2)c1 (stereo unspecified) |  | inactive: 8.23%
CCOc1ccc(NC(=O)Cn2ccn(-c3ccc(F)c(F)c3)c(=O)c2=O)cc1 | inconclusive [falling, single point] | 
Cc1ccc(N2C(=O)c3[nH]nc(-c4ccc(Cl)cc4)c3C2c2ccc(F)cc2)cc1 (stereo unspecified) | inconclusive [falling, single point] | 
COc1ccc(NC(=O)CSCc2cnn(-c3ccccc3)c2-n2cccc2)cc1 | inconclusive [falling, single point] | 

SMILES | Potency | activity change, negative = inhibition
CCC(C)NC(=O)c1ccc2nc(Cc3ccc(OC)cc3)oc2c1 (stereo unspecified) |  | inactive: 1.76%
NS(=O)(=O)c1ccc(NC(=O)c2ccc3c(c2)CCN3S(=O)(=O)c2ccccc2)cc1 | inconclusive [falling, single point] | 
COC(=O)C(CCSC)NC(=O)c1cc2c(n(-c3ccc(C)cc3)c1=O)CC(C)(C)CC2=O (stereo unspecified) | inconclusive [falling, partial curve, poor fit] | 
CC1CCN(S(=O)(=O)c2ccc(C(=O)Nc3sc4c(c3C(N)=O)CC(C)(C)NC4(C)C)cc2)CC1 | active: 18.5 µM | 
COc1ccc(-c2cc(C(=O)NCc3ccc(F)cc3)c3c(-c4ccc(F)cc4)[nH]nc3n2)cc1OC |  | inactive: -5.51%
O=C(Cn1cc(SCc2ccc(C(F)(F)F)cc2)c2ccccc21)N1CCCC1 | inconclusive [falling, partial curve, poor fit] | 
Cc1ccc(Cn2c(C(C)NC(=O)c3ccccc3)nc3ccccc32)cc1 (stereo unspecified) | inconclusive [falling, single point] | 
Cc1noc(C)c1S(=O)(=O)N1CCC(C(=O)N2CCN(c3cccc(C(F)(F)F)c3)CC2)CC1 | inconclusive [falling, full curve, poor fit] | 
CCOC(=O)c1c(C)[nH]c(CCC(=O)Nc2ccc(OC)c(OC)c2)c1C |  | inactive: 0.489%
COc1ccc(C2CC(=O)c3cc(-c4nc(-c5ccc(Cl)cc5)cs4)c(=O)[nH]c3C2)cc1OC (stereo unspecified) |  | inactive: 7.24%
CCn1cc(C(=O)N2CCN(c3cccc(C)c3C)CC2)c2cc(OC)c(OC)cc2c1=O | inconclusive [falling, single point] | 
COc1cccc(-c2nc(S(=O)(=O)c3ccc(C)cc3)c(N3CCCCC3)o2)c1 | inconclusive [falling, partial curve, poor fit] | 
COc1ccc(-c2nc(SCC(=O)Nc3c(C)cc(C)cc3C)n[nH]2)cc1 | inconclusive [falling, single point] | 
Cc1cc(C)n(-c2nnc(Nc3ccc(C)c(Cl)c3)c3ccccc23)n1 | inconclusive [falling, partial curve, poor fit] | 
CN(C)C(=O)c1c(NC(=O)c2ccccc2F)sc2c1CCCC2 | inconclusive [falling, single point] | 
CCC(=O)N1CCc2cc(Br)cc(S(=O)(=O)N3CCCC(C(=O)Nc4ccc(OC)c(Cl)c4)C3)c21 (stereo unspecified) | inconclusive [activator, partial curve, poor fit] | 
Cc1ccc2c(c1)cc(C(=O)Nc1ccc(F)cc1F)n2C | inconclusive [falling, partial curve, poor fit] | 
Cc1ccn2c(Nc3ccc4c(c3)OCCO4)c(-c3ccc(Cl)s3)nc2c1 |  | inactive: 5.18%
Cc1ccc(C(=O)N(Cc2ccc(N(C)C)cc2)Cc2ccco2)cc1 | inconclusive [falling, single point] | 
Cc1ccc(CNC(=O)CCS(=O)(=O)c2cc(Br)cc3c2N(C(=O)C2CC2)CC3)cc1 |  | inactive: -0.185%
Cc1cc(C)c(S(=O)(=O)NCC(c2cccs2)S(=O)(=O)c2ccccc2)c(C)c1 (stereo unspecified) | inconclusive [falling, single point] | 

SMILES | Potency | activity change, negative = inhibition
CCN(CC)CCNC(=O)c1ccc(Cn2c(=O)c3cccn3c3cccnc32)cc1 | active: 3.29 µM | 
CCCNC(=O)c1ccc(-n2c(-c3ccccc3)cc3c2CCC(C)C3)cc1 (stereo unspecified) | inconclusive [falling, partial curve, poor fit] | 
CCOc1ccccc1NC(=O)c1c(NCc2sccc2C)sc2c1CCCCC2 |  | inactive: -0.395%
CCOc1ccc(S(=O)(=O)Nc2cc3c(C(=O)OC)c(COC)oc3c3ccccc23)cc1 | inconclusive [falling, full curve] | 
Cc1ccc(N=C2NC(=O)CC(C(=O)Nc3cc(C(F)(F)F)ccc3Cl)S2)cc1 (stereo unspecified) | inconclusive [falling, single point] | 
COc1cc(Cl)c(NS(=O)(=O)c2cc(-c3cc(C)no3)ccc2OC)c(OC)c1 | inconclusive [falling, partial curve, poor fit] | 
CCS(=O)(=O)c1ncc(Cl)c(C(=O)Nc2ccccc2)n1 | active: 1.85 µM | 
CC(=O)c1cccc(NS(=O)(=O)c2cc(-c3cnc(C4CC4)o3)ccc2C)c1 |  | inactive: -11.5%
CCc1nn(CC(=O)N(C)Cc2ccccc2)c(=O)c2cc3sccc3n12 | inconclusive [falling, single point] | 
Cc1ccc(C)c(NC(=O)Cn2cc(C(=O)c3cccs3)c3ccccc32)c1 | inconclusive [falling, partial curve] | 
CC(C)Oc1ccc(C(=O)NCC(c2ccc(N(C)C)cc2)N2CCCC2)cc1 (stereo unspecified) | inconclusive [falling, single point] | 
Nc1c(C(=O)Nc2ccccc2F)sc2nc3c(cc12)CCCCCC3 | inconclusive [falling, partial curve, poor fit] | 
Cc1ccc(NS(=O)(=O)c2cc(-c3cnc(C4CC4)o3)ccc2C)cc1Cl | inconclusive [falling, partial curve] | 
Cc1ccc(C(=O)COC(=O)c2cccc(NC(=O)c3ccc(Cl)cc3Cl)c2)cc1 | inconclusive [falling, single point] | 
CCN(CC)CCCNC(=O)c1nn(C)c2c1CSc1ccccc1-2 | inconclusive [falling, single point] | 
COc1ccccc1-c1cc(C(=O)Nc2cc(OC)c(OC)c(OC)c2)no1 | inconclusive [falling, partial curve, poor fit] | 
COc1ccc(NC(=O)CCc2nc3c(C)nn(-c4ccc(C)cc4)c3n(C)c2=O)cc1 | inconclusive [falling, partial curve, poor fit] | 
COc1ccc(-c2ccc(CCC(=O)O)n2-c2ccccc2O)cc1 | active: 13.1 µM | 
COc1ccc(C(=O)c2sc3nc(-c4ccc(F)cc4)ccc3c2N)cc1 | inconclusive [falling, partial curve, poor fit] | 
